Test results from PubChem BioAssay AID485344 (National Center for Advancing Translational Sciences (NCATS), 2010).
Among all 340,000 compounds or so, about 6,900 (2%) were called active. Cut-off read from the data, not from the text of the source: active = inhibition above about 30%; inactive = below that, where a call was filed. Only a part is listed here, and it is no random draw. The source gives no active or inactive call for entries shown without one.

biological target: D(2) dopamine receptor (Homo sapiens) (UniProt P14416); test: HTS Assay for Allosteric Antagonists of the Human D2 Dopamine Receptor: Primary Screen for Antagonists; details: HEK293 TREx D2 cells, calcium flux, dopamine EC80; at 10 µM; stronger effect = higher value; note: 0% is about no effect
Outline: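 Antagonism is scored as inhibition of an EC80 dopamine-evoked calcium signal in a force-coupled, tetracycline-inducible HEK293 T-REx D2 line, with compound present 180 s before agonist.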

UniProt P14416, sequence (P14416 whole entry, looked up): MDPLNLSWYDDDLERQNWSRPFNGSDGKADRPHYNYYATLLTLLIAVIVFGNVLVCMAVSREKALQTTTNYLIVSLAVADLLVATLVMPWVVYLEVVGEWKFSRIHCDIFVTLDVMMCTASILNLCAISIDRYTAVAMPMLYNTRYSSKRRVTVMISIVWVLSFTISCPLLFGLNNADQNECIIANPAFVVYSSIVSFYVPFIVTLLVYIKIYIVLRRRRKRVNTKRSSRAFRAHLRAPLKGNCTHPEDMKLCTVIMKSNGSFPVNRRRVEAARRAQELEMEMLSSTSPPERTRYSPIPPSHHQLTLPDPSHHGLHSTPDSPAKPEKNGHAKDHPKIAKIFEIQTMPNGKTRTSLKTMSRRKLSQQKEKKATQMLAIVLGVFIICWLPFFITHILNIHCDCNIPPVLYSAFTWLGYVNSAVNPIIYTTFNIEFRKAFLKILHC

Row | SMILES | inhibition
1 | CC(=O)N1c2ccc(S(=O)(=O)N3CCCCCC3)cc2CC1C(=O)NCc1cccc(C)c1 (stereo not given) | 7.38%
2 | COc1cc(NC(=O)Cn2c(=O)cc(C)c3c(C)nn(-c4ccc(C)cc4)c32)cc(OC)c1 | -3.41%
3 | Cc1ccc(CNc2nnc(C)c3nnn(Cc4ccc(F)cc4)c23)cc1 | 12.6%
4 | O=C(NCCc1csc(-c2cccnc2)n1)c1cccc(Cl)c1 | 14.4%
5 | Cc1ccc2ncc(C(=O)c3ccc(C)c(C)c3)c(S(=O)(=O)c3ccc(F)cc3)c2c1 | -12.6%
6 | CCOc1ccc(CC(=O)NCCc2sc3nc(-c4ccc(F)cc4)nn3c2C)cc1 | -23%
7 | Cc1nc(SCc2cccc(Cl)c2)nc2c1CCCC2 | 11.3%
8 | Cc1ccccc1Cn1c(SCc2ccc(C(=O)NC3CCCCC3)cc2)nc2ccncc21 | -15.4%
9 | CC(C)N(Cc1nc(-c2ccc(Cl)cc2)no1)C(=O)c1ccc(C(C)(C)C)cc1 | -7.58%
10 | Cc1cc(Cl)ccc1NS(=O)(=O)c1c(C(=O)N2CCC(C)CC2)c(C)n(C)c1C | 2.42%
11 | CC1CCCN(c2nc3c(-c4ccc(Cl)cc4)nnn3c3ccccc23)C1 (stereo not given) | -7.79%
12 | Cc1ccc(-c2csc(-c3cc4c([nH]c3=O)CC(c3ccccc3)CC4=O)n2)cc1 (stereo not given) | 10.9%
13 | N#Cc1c(N)sc(=S)c2c1CCN(Cc1ccccc1)C2 | active: 31.6%
14 | COc1ccc2oc(=O)c(-c3nnc(-c4ccc(C)cc4)o3)cc2c1 | -6.57%
15 | CCN(CC)S(=O)(=O)c1ccc2c(c1)N(CC(=O)NCc1ccccc1)C(=O)C1CCCCN21 (stereo not given) | -14.4%
16 | Cc1ccc(N(C(=O)c2sc(C)nc2C)C(C(=O)NCc2ccco2)c2ccccc2)cc1 (stereo not given) | active: 43.6%
17 | Cc1cc2c(cc1S(=O)(=O)Nc1ccc(OC(F)(F)F)cc1)OCC(=O)N2 | 20.9%
18 | O=C(CSc1nc2ccc(N3CCOCC3)cc2c(=O)n1CCc1ccccc1)NCC1CCCO1 (stereo not given) | active: 40.6%
19 | NC(=O)c1c(NC(=O)CS(=O)(=O)c2ccc(Cl)cc2)sc2c1CCCCC2 | 14.1%
20 | CC(C)NCCOCCOc1ccc(Cl)cc1Br | active: 66.9%
21 | Cc1ccc(Nc2c(-c3ccc(Br)o3)nc3ccccn23)cc1 | 18.5%
22 | COc1ccc(S(=O)(=O)NCc2nc3nc(C)cc(C)n3n2)cc1 | 11.5%
23 | CCOc1ccc(NC(=O)CSC2=Nc3ccccc3C3=NC(CCC(=O)NCc4ccco4)C(=O)N23)cc1 (stereo not given) | -27.8%
24 | Cc1ccc(Cl)cc1N1CCN(C(=O)Cn2ncc3c4ccccc4n(C)c3c2=O)CC1 | -7.29%

Row | SMILES | inhibition
25 | CCC(=O)Oc1c(Sc2ccc(Cl)cc2)c(C)nn1-c1ccccc1 | -0.176%
26 | Cc1ccc(-c2nc(CS(=O)(=O)CC(=O)Nc3ccc(Br)cc3F)c(C)o2)cc1 | -9.37%
27 | Cc1ccccc1NC(=O)c1c(C)oc2ccc(O)c(CN3CCOCC3)c12 | 8.38%
28 | CCn1c(=O)c2cc(C(=O)NCCCN3CCN(C)CC3)sc2c2ccccc21 | -0.773%
29 | COc1ccc(-c2nc3c(c(SC)n2)Cc2c(CO)cnc(C)c2O3)cc1 | 13%
30 | CN1CCN(CCOCCOc2ccc(Br)cc2Cl)CC1 | active: 30.7%
31 | O=C(CSc1n[nH]c(-c2ccccc2Cl)n1)NCc1ccc(F)cc1 | -17.6%
32 | O=C(CCC(=O)c1ccc(F)cc1)Nc1ccc(Cl)cc1 | -3.31%
33 | O=C(c1ccc2c(c1)N(Cc1ccccc1F)C(=O)c1ccccc1S2(=O)=O)N1CCN(c2ccccn2)CC1 | 3.17%
34 | CCn1cc(S(=O)(=O)c2cccc(C)c2)c(=O)c2cc(F)c(N3CCCC(C)C3)cc21 (stereo not given) | 1.43%
35 | CCOc1ccc(CNC(=O)C2CCCCN2S(=O)(=O)c2ccc(F)cc2)cc1OC (stereo not given) | -5.92%
36 | CC(C)c1ccc(NC(=O)c2cc(S(=O)(=O)N(C)C3CCCCC3)ccc2F)cc1 | -6.38%
37 | CCCCn1cnc2cc(NCc3ccc(OCC)cc3)ccc21 | -7.35%
38 | O=C(N/N=C/C=C/c1ccccc1[N+](=O)[O-])c1cccs1 | active: 39.2%
39 | CCOc1ccc(NC(=O)c2cc(S(=O)(=O)N3CCc4ccccc43)ccc2F)cc1 | -7.59%
40 | CCN(C(=O)Cn1c(=O)n(-c2ccccc2)c(=O)c2ccc(C(=O)NCc3ccc4c(c3)OCO4)cc21)c1cccc(C)c1 | 13%
41 | Cc1c(Cl)cccc1NS(=O)(=O)c1ccc(-c2cnc(C3CC3)o2)cc1 | -5.12%
42 | Cc1cc(C)cc(OCC(=O)Nc2c(C(=O)c3ccccc3)oc3ccccc23)c1 | 4.86%
43 | CCC(=O)N1c2ccccc2CC1C(=O)NCc1cc(OC)ccc1OC (stereo not given) | 2.9%
44 | O=C(CCn1c(=O)c2cccn2c2cccnc21)Nc1ccccc1C(F)(F)F | 2.93%
45 | CCOc1ccc(NC(=O)CCN2CCN(c3ccccc3OC)CC2)cc1 | active: 61.5%
46 | Cc1cc(C)nc(-n2nc(C)c3c2N(Cc2ccccc2)C(=O)CC3c2ccc(Cl)cc2)n1 (stereo not given) | -15.2%
47 | Cc1ccc2c(=O)cc(C(=O)Nc3ccc(S(=O)(=O)Nc4onc(C)c4C)cc3)oc2c1C | -4.27%
48 | O=C(CSc1oc(-c2ccccc2)nc1S(=O)(=O)c1ccc(Cl)cc1)c1ccccc1 | -4.78%

Row | SMILES | inhibition
49 | O=C(CC1C(=O)N(c2ccc(F)cc2)C(=O)N1Cc1ccc2c(c1)OCO2)Nc1ccc(Cl)cc1 (stereo not given) | -17.5%
50 | Cc1ccc(-n2cc(C(=O)Oc3ccc(F)cc3)c3ccccc3c2=O)cc1 | 16.5%
51 | Cc1ccc(NC(=O)CN(C)S(=O)(=O)c2cnc[nH]2)cc1 | 5.59%
52 | Cc1ccc(NC(=O)Cn2c(=O)n(CCCCC(=O)NCc3ccccc3Cl)c(=O)c3ccccc32)cc1 | 1.1%
53 | O=C(CCCN1CCC(C(=O)c2ccc(F)cc2)CC1)c1ccc(F)cc1 | active: 71.5%
54 | Cc1ccc(C)c(CN2C(=O)c3ccccc3S(=O)c3ccc(C(=O)N4CCN(c5cccc(Cl)c5)CC4)cc32)c1 (stereo not given) | 9.42%
55 | COc1ccccc1OCC(=O)NCC(c1ccc(Cl)cc1)N1CCOCC1 (stereo not given) | 11%
56 | CCCc1nn2c(=O)cc(COc3ccc(/C=C(\C#N)C(=O)Nc4ccccc4)cc3)nc2s1 | -11.9%
57 | COc1ccc(C(CC(=O)NCc2ccccc2Cl)N2Cc3ccccc3C2=O)cc1OC (stereo not given) | -18.5%
58 | CC(C)CC(=O)NC1(C(F)(F)F)C(=O)Nc2c1c(=O)[nH]c(=O)n2-c1ccccc1 (stereo not given) | 4.18%
59 | O=C(COC(=O)c1cccnc1)Nc1cccc2ccccc12 | active: 32.2%
60 | CCS(=O)(=O)N1CCC(N2CCN(c3ccccc3)CC2)CC1 | active: 73.1%
61 | Cc1ccc(-n2c(=O)c3cccnc3n2CC(=O)Nc2cc(Cl)ccc2C)cc1 | 17.5%
62 | O=c1cc(-c2ccccc2)n2c(SCc3c(F)cccc3Cl)nnc2[nH]1 | -4.28%
63 | COc1ccc(Nc2oc(/C=C/c3cccc(OC)c3)nc2C#N)cc1 | 18.8%
64 | CCCn1c(=NC(=O)c2cc3ccccc3o2)c(C(=O)OCC)cc2c(=O)n3ccccc3nc21 | 0.37%
65 | COc1ccc(N(C(=O)/C=C\C(=O)Nc2ccc(C)cc2)C(C(=O)NCc2ccco2)c2ccc(C)cc2)cc1 (stereo not given) | 19.1%
66 | CCCCN(CC)CCNC(=O)C1CCCN(S(=O)(=O)c2cccc3nsnc23)C1 (stereo not given) | 19.3%
67 | CN1Cc2cccc3c2C(Cc2ccccc2S3)C1 (stereo not given) | active: 47.6%
68 | O=C(Cn1ncc2ccsc2c1=O)N1CCN(c2ccccc2F)CC1 | 10.5%
69 | O=S(=O)(c1ccc(-n2cnnn2)cc1)N1CCN(c2cccc(Cl)c2)CC1 | -10.7%
70 | Cc1c(C(=O)N2CCCCCC2)c(S(=O)(=O)N(Cc2ccccc2)C(C)(C)C)c(C)n1C | 10%
71 | CCc1cccc(C)c1NC(=O)CN1CCCN(Cc2ccccc2Cl)S1(=O)=O | 3.21%
72 | COc1cc(C(=O)NC(c2ccc(Cl)cc2)c2cc(Cl)c3cccnc3c2O)cc(OC)c1OC (stereo not given) | 0.898%

Row | SMILES | inhibition
73 | CN(CCCNC(=O)c1cccn2c(=O)c3ccccc3nc12)Cc1ccccc1 | active: 31%
74 | CCOc1ccccc1NC(=O)C(CC)n1c(C(=O)OC)cc2occc21 (stereo not given) | 1.47%
75 | COc1cc(C2c3c(-c4ccccc4O)n[nH]c3C(=O)N2Cc2ccco2)ccc1OCC(C)C (stereo not given) | -3.83%
76 | Cc1ccc(-n2nc3c(N4CCC(C(=O)NCc5ccccc5Cl)CC4)nnc(C)c3c2C)cc1 | -5.14%
77 | COc1ccc2ccccc2c1/C=N\NC(=O)c1ccc(C)s1 | active: 40.2%
78 | CC(=O)c1ccc(NC(=O)CCOc2ccccc2)cc1 | -8.88%
79 | CCOC(=O)c1c(C)[nH]c(C)c1S(=O)(=O)NCC(=O)N1CCN(c2ccccc2OC)CC1 | 4.78%
80 | COc1ccc(OC)c(S(=O)(=O)NCCc2csc(-c3cccc(F)c3)n2)c1 | -0.264%
81 | CCN(CC)C(=O)Nc1ccc2c(c1)N(Cc1ccccc1)C(=O)c1ccccc1S2 | 8.67%
82 | O=C(CN1CCSc2ccccc21)N1CCN(c2ccc(F)cc2)CC1 | 5.99%
83 | Cc1ccc(N(C)C(=O)c2cc(S(=O)(=O)N3CCOCC3)cn2C)cc1 | 7.6%
84 | CCN(CCNc1ccc(Cl)cc1[N+](=O)[O-])C(=O)c1cc([N+](=O)[O-])c(N(C)C)cc1OC | active: 34.4%
85 | COc1ccc(CCNC(=O)CCCCn2c(=O)c3ccccc3n(Cc3ccccc3Cl)c2=O)cc1OC | -14.5%
86 | COc1ccccc1-c1noc(CCCC(=O)Nc2cc(C)ccc2C)n1 | 26%
87 | COc1ccc(C(=O)Nc2ccc(C(=O)OCc3cc(=O)n4nc(C5CC5)sc4n3)cc2)cc1 | -6.65%
88 | CCCOc1ccc(OCCOCCN2CCc3ccccc3C2)cc1 | active: 31.4%
89 | COc1cc(F)c(S(=O)(=O)Nc2c(C)n(C)n(-c3ccccc3)c2=O)cc1OC | 15.4%
90 | COC(=O)c1ccc(CSc2nnc3ccc4ccccc4n23)cc1 | -14.2%
91 | COCCCN(C(=S)Nc1cccc(Cl)c1)C(C)c1ccncc1 (stereo not given) | active: 30.3%
92 | COc1ccccc1Cn1cc(C(=O)c2ccc(C)cc2)c(=O)c2cc3c(cc21)OCCO3 | 9.8%
93 | CCn1cc2c(n1)-c1c(oc(C(=O)Nc3cccc(C(F)(F)F)c3)c1C)CC2 | -2.36%
94 | Cc1cc(=O)c2cc(C(=O)Nc3ccccc3C)ccc2[nH]1 | 16.5%
95 | CCOc1cc2sc(N3CCC(C(=O)Nc4cc(C)cc(C)c4)CC3)nc2cc1Br | 9.11%
